Laboratory results published in PubChem BioAssay AID493208 (National Center for Advancing Translational Sciences (NCATS), 2011).
Among all 44,000 compounds or so, about 340 (0.77%) were called active. About 5% were inconclusive and are not listed. Calls come from the whole dose curve; as a rule, active = well fitted inhibition curve with a large enough effect; inconclusive = small, poorly fitted or top-dose-only effect; inactive = flat fitted curve, though single readings scatter. The list shows a part of the results.

Test: Acumen qHTS Assay for Inhibitors of the mTORC1 Signaling Pathway in MEF (Tsc2-/-, p53-/-) Cells: Sytravon; note: nearly all actives have a fitted effect of over 50% in size;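 for activity change, negative = inhibition: plate controls were DMSO for no effect and rapamycin for full effect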
Settings: phospho-rpS6 immunofluorescence/PI, 24 h; series mostly up to 38.3 µM; activity change, negative = inhibition: at the top concentration
In short: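 Cell-based qHTS: Tsc2-/- p53-/- MEF, 24 h cpd, 37 °C; fix/perm, anti-phospho-S6 Alexa-488 + PI; Acumen 488 nm scan; pS6/PI ratio, % positive cells; rapamycin 7.5 nM = inhibition ref; PI count = viability.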
Potency is the fitted concentration of half-maximal effect.

SMILES | activity change, negative = inhibition | Potency
Cc1ccccc1CNC(=O)c1ccc2nc(SCc3ccc(F)cc3)n(C)c2c1 | inactive: -0.198% | –
CCC(=O)C1=C(c2ccc(F)cc2)N(C(=O)CC)n2cnnc2S1 | – | active: 11.7 µM
Cc1ccccc1CN1C(=O)c2ccccc2S(=O)c2ccc(C(=O)NCc3ccc(Cl)cc3)cc21 (configuration not stated) | inactive: 1.17% | –
CCCOc1ccc(-c2cccc(NS(=O)(=O)c3ccccc3)c2)nn1 | inactive: -6.24% | –
CCc1ccccc1NC(=O)CN(c1ccccc1)S(=O)(=O)c1ccsc1C(=O)OC | inactive: -8.12% | –
O=C(NCc1ccc2c(c1)OCO2)c1ccc2c(c1)N(Cc1ccccc1F)C(=O)c1ccccc1S2 | inactive: -7.1% | –
Cc1ccc2cccc(NC(=O)c3ccc(OC(C)C)cc3)c2n1 | inactive: 0% | –
Cc1ccc(CNC(=O)Nc2cc(C(=O)NCc3ccc(C(C)C)cc3)ccc2N2CCCC2)cc1 | inactive: 0% | –
CC(C)(C)OC(=O)N1CCC(c2c(C(=O)NCCN3CCc4ccccc4C3)cnn2-c2ccc(F)cc2)CC1 | inactive: -5.18% | –
CCCCOc1ccc(C(=O)Nc2ccc(-c3cc4ccccc4oc3=O)cc2)cc1 | inactive: 3.68% | –
Cc1c(Cl)cccc1NC(=O)c1ccc2c(c1)CCCN2S(C)(=O)=O | inactive: -7.15% | –
CC(C)c1ccc(OCC(=O)NCCS(=O)(=O)N2CCN(c3ccc(F)cc3)CC2)cc1 | inactive: 0.983% | –
COc1ccccc1C(=O)N1c2ncnn2C2(CCCCC2)[C@@H]2CCCC[C@@H]21 | inactive: -6.35% | –
COc1ccc(Cn2c(C(=O)O)c(CNC3CCCC3)c3ccc(OC)cc32)cc1 | inactive: -6.29% | –
Cc1cc(C)cc(-n2c(C)cc(C(=O)C(=O)Nc3ccccc3F)c2C)c1 | inactive: 0.738% | –
CCN1C(=O)c2ccccc2Sc2ccc(NC(=O)N3CCN(c4cc(C)ccc4C)CC3)cc21 | inactive: -0.235% | –
CCOC(=O)c1ccc(NC(=O)C(CC)Sc2nc3ccncc3[nH]2)cc1 (configuration not stated) | inactive: 2.76% | –
CCOc1ccc(-c2nn(-c3ccccc3)cc2C2NC(=O)NC(C)=C2C(=O)OC(C)C)cc1 (configuration not stated) | inactive: 11.5% | –
O=C(NCC(c1ccc(Cl)cc1)N1CCOCC1)c1ccccc1F (configuration not stated) | inactive: -0.775% | –
COc1cccc(C2CC(=O)Nc3c2c(=O)[nH]c2nc4ccccc4n32)c1 (configuration not stated) | inactive: -1.19% | –
COc1ccc(C(=O)NCC(c2ccc3c(c2)OCO3)N2CCN(c3ccccc3F)CC2)cc1 (configuration not stated) | inactive: 1.18% | –
O=C(COc1ccc([N+](=O)[O-])cc1)Nc1nc2c(s1)CCCC2 | inactive: -6.66% | –
Cc1ccccc1-c1nnn(CC(=O)Nc2sc3c(c2C#N)CCC(C(C)(C)C)C3)n1 (configuration not stated) | inactive: 2.54% | –
CCc1ccc(NC(=O)Cn2c(=O)n(CCCCC(=O)NCCc3ccc(Cl)cc3)c(=O)c3ccccc32)cc1 | inactive: -19.7% | –

SMILES | activity change, negative = inhibition | Potency
O=c1[nH]c2ccc(NCc3ccc(-c4ccc(Br)cc4)o3)cc2[nH]1 | inactive: -23.4% | –
CCOC(=O)c1c(NC(=O)c2nc(S(C)(=O)=O)ncc2Cl)sc(C(C)=O)c1C | – | active: 3.69 µM
Cc1ccc2ncc(C(=O)Nc3ccc(OC(F)(F)F)cc3)c(=O)n2c1 | inactive: -1.48% | –
COc1cc(OC)cc(-c2nc(-c3ccc4c(c3)[nH]c(=O)n4C)no2)c1 | inactive: -0.987% | –
O=C1CCCc2cc(S(=O)(=O)N3CCCC(C(=O)NCc4ccc(Cl)cc4)C3)ccc2N1 (configuration not stated) | inactive: -0.433% | –
O=C(Nc1ccccc1C(F)(F)F)n1ncc2cc(Cl)ccc21 | inactive: -1.18% | –
COc1ccc2cc3c(N)nn(C(=O)c4ccc(OC)c(OC)c4)c3nc2c1 | inactive: 1.14% | –
Cc1ccc(-c2cc(C(=O)NCc3ccccc3Cl)c3ccccc3n2)cc1C | inactive: 9.73% | –
CCOC(=O)c1[nH]c2ccccc2c1NC(=O)c1ccc(Br)cc1 | inactive: -27.2% | –
COc1cccc(CNC(=O)C2CCN(S(=O)(=O)c3ccc4c(c3)CCCN4C(C)=O)CC2)c1 | inactive: -6.95% | –
CCOc1ccc(-c2nc3c(c(SCC(=O)N4CCCCC4)n2)Cc2cccc(OC)c2O3)cc1 | inactive: 3.37% | –
CCCn1c2ccccc2c2cnn(CC(=O)N3CCN(c4ccccc4)CC3)c(=O)c21 | inactive: 0.512% | –
Cc1cccc(CSc2ncc(Cl)c(C(=O)Nc3nc4ccc(F)cc4s3)n2)c1 | inactive: 4.18% | –
CCOc1ccc(NC(=O)c2ncoc2-c2ccco2)cc1 | inactive: 0% | –
COc1cc(NC(=O)Cn2cc(C(=O)c3ccc(F)cc3)c(=O)c3ccc(C)nc32)cc(OC)c1 | inactive: -6.95% | –
Cc1ccc2nc3c(cc(C#N)c(=O)n3-c3nnc(SCc4ccccc4)s3)c(=O)n2c1 | inactive: -8.16% | –
O=C(Cn1c(=O)nc(-c2ccccc2)c2cc(Cl)ccc21)Nc1ccc(F)c(Cl)c1 | inactive: 3.01% | –
CC(C)NC(=O)c1ccc(NC(=O)N2CCCCc3ccccc32)cc1 | inactive: 3.22% | –
COc1cccc(CNC(=O)c2ccc(-n3c(C)cc4c3CCC(C)C4)cc2)c1 (configuration not stated) | inactive: -13.9% | –
CCN(Cc1ccccc1)C(=O)c1cnn(-c2ccc(F)cc2)c1-n1cccc1 | inactive: -7.32% | –
Cc1ccc(NC(=O)c2cnn3c2NC(c2ccccc2)=CC3c2ccccc2)cc1 (configuration not stated) | inactive: 5.14% | –
CCCn1c2ccccc2c2nnc(SCC(=O)Nc3cccc(C(C)=O)c3)nc21 | inactive: -13% | –
COc1ccccc1OC(C)C(=O)Nc1cccc(-c2nc3ccccc3o2)c1 (configuration not stated) | inactive: 0.0968% | –
